# Reference: PubChem BioAssay AID588795 (National Center for Advancing Translational Sciences (NCATS), 2011)
# Hit rate of the full screen: of about 390,000 compounds, about 1,400 (0.36%) were called active. The shares of active, inactive and inconclusive entries below differ from those in the screen. Calls follow the shape of the dose curve; as a rule, active = well fitted inhibition curve with a large enough effect; inconclusive = small, poorly fitted or top-dose-only effect; inactive = no such curve, though single readings can be large or run the other way. Potencies beside an inconclusive call are fits to weak or partial responses and may not hold up.
# Target: Flap endonuclease 1 (Homo sapiens) (UniProt P39748)
# Sequence of UniProt P39748 (P39748 whole entry, looked up): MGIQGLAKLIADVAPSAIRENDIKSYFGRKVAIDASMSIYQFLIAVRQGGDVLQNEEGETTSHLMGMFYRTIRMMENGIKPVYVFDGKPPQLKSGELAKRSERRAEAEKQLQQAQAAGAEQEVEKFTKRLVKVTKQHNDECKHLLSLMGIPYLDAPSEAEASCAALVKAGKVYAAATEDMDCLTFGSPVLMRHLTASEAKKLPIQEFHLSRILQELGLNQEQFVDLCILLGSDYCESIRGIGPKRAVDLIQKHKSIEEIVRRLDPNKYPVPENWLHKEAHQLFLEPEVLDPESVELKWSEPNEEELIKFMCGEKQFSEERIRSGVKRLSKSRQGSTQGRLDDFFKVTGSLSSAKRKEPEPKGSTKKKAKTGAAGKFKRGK
# Test: qHTS Assay for the Inhibitors of Human Flap endonuclease 1 (FEN1). Also: nearly all actives have a fitted effect of over 65% in size.
# Details: Recombinant FEN1 flap cleavage, fluorescence, 15 min; series mostly up to 114 µM
# From the text: The major human flap endonuclease FEN1 is an efficient structure-specific enzyme that recognizes and cleaves a 5'-unannealed DNA flap. It belongs to the RAD2 family nucleases, which are involved in DNA metabolism and are highly conserved in prokaryotes and eukaryotes. FEN1 is a key enzyme in DNA replication, repair and maintenance of genomic stability. 5'-flap removal by FEN1 is critical for Okazaki fragment processing during lagging strand DNA synthesis, long-patch base excision repair (LP BER), and regulating or facilitating recombination events. […] Deletion of the yeast FEN1 gene, i.e. rad27, results in an increased frequency of short DNA (3-32 bp) repeats, micro- and mini-satellite formation, trinucleotide repeat expansion, spontaneous recombination events, and a severe growth defect in association with cell cycle arrest in late S/G2 phase. […] Cells from fen1-/- blastocysts show increased apoptotic cell death after ionizing radiation treatment, and chicken cells lacking the fen1 gene are hypersensitive to DNA alkylating agents, e.g. methylmethane sulfonate (MMS) and N-methyl-N'-nitro-N-nitrosoguanidine (MNNG), as well as hydrogen peroxide.
# NIH Chemical Genomics Center [NCGC]
# NIH Molecular Libraries Probe Centers Network [MLPCN]
# Assay Submitter (PI): David Wilson, National Institute of Aging
# Three uL of reagents (buffer in column 3 and 4 as negative control and 10 nM FEN1 in columns 1, 2, and 5-48) were dispensed into 1,536-well black solid-bottomed plate. Compounds (23 nL) were transferred via Kalypsys pin tool equipped with 1536-pin array (10 nL slotted pins, V&P Scientific, San Diego, CA). The plates were then incubated for 15 min at room temperature, and 1 uL substrate (50 nM final concentration) were added to start the reaction read twice at 0 min read and 15 min on ViewLux reader. Throughout the screen, reagent bottle and all liquid lines were chilled and made light-tight to minimize reagent degradation. All screening operations were performed on a fully integrated robotic system (Kalypsys, San Diego, CA) containing one RX-130 and two RX-90 anthropomorphic robotic arms (Staubli, Duncan, SC). Library plates were screened starting from the lowest and proceeding to the highest concentration, and a "double-dipping" step of the highest concentration was required to access higher concentrations of compounds. Vehicle-only plates, with DMSO being pin-transferred to the entire column 5-48 compound area, were inserted uniformly at the beginning and the end of each library in order to monitor for and record any shifts in the background, which can be affected by reagent dispensers or loss in enzyme activity overtime. Screening data was corrected, normalized, and concentration-effect relationships were derived by using publicly-available curve fitting algorithms developed in-house (http://ncgc.nih.gov/pub/openhts). A four parameter Hill equation was fitted to the concentration-response data by minimizing the residual error between the modeled and observed responses.
# Potency is read from the fitted curve at half-maximal effect; tags tell the direction and shape of the fitted curve.
row,Compound,Potency
1,O=C(CN1CCCCC1)n1c2ccccc2c2ccccc21,"inconclusive: 89.1 µM [inhibitor, single point]"
2,Cc1cc2oc(=O)cc(CN(C)Cc3ccccc3F)c2cc1Cl,inactive
3,C/C(=N\Nc1nnc2c3ccccc3n(C)c2n1)c1ccc(C)o1,"inconclusive: 39.8 µM [inhibitor, full curve]"
4,CCCCN(CCCC)S(=O)(=O)c1ccc(NC(=O)c2cccs2)cc1,"inconclusive: 20 µM [inhibitor, partial curve, poor fit]"
5,COc1ccc(N2CCN(S(=O)(=O)c3ccc4oc(=O)c5ncn(C)c5c4c3)CC2)cc1,inactive
6,O=C(NNc1ccccn1)c1ccccc1CC[N+](=O)[O-],"inconclusive: 56.2 µM [inhibitor, partial curve, poor fit]"
7,CCOc1ccc(CC(=O)Nc2ccc(-c3ccc4nnc(C)n4n3)cc2)cc1,"inconclusive: 50.1 µM [inhibitor, partial curve, poor fit]"
8,COc1cc(C#Cc2c(-c3ccccc3OC)oc3ccccc23)cc(OC)c1,"inconclusive: 89.1 µM [inhibitor, partial curve, poor fit]"
9,COC/C=C/C1=CC2=CC(=O)C(C)(OC(=O)c3cnc4ccccc4n3)C(=O)C2=CN1c1ccc(OC)cc1 (centres undefined),inactive
10,COc1ccccc1CCNC(=O)C1CCCO1 (centres undefined),"inconclusive: 20 µM [inhibitor, single point]"
11,COc1ccccc1/C=c1\sc2nc(-c3ccco3)nn2c1=O,active: 50.1 µM
12,O=C(CSc1ccncc1)Nc1ccc(S(=O)(=O)Nc2nccs2)cc1,"inconclusive: 44.7 µM [inhibitor, partial curve, poor fit]"
13,Cc1c(CC(=O)N[C@@H](C)C(=O)O)c(=O)oc2cc3occ(-c4ccccc4)c3cc12,"inconclusive: 79.4 µM [inhibitor, partial curve, poor fit]"
14,N#CCC(=O)N/N=C/c1ccc(Sc2nc3ccccc3s2)o1,"inconclusive: 50.1 µM [inhibitor, partial curve, poor fit]"
15,C/C(=C1/SC(=S)N(CCC(=O)O)C1=O)c1ccc(O)cc1,inactive
16,CC(=O)O[C@@H]1[C@H]2[C@@H](C[C@@H](C)[C@@H]3C=CC(=O)[C@@]13C)OC(=O)[C@@H]2C,inactive
17,COc1cc(C(=O)NCC(c2cccs2)N2CCOCC2)cc(Br)c1OCc1ccccc1 (centres undefined),"inconclusive: 10 µM [inhibitor, partial curve, poor fit]"
18,CCc1cc(=O)oc2c(CN3CCCC3)c(O)c(Cl)cc12,inactive
19,O=C(Nc1ccc(S(=O)(=O)N2CCCC2)cc1)c1cncc(Br)c1,"inconclusive: 89.1 µM [inhibitor, partial curve, poor fit]"
20,Cc1[nH]n(-c2ccccc2)c(=O)c1C=Nc1cccc2cccnc12,"inconclusive: 50.1 µM [inhibitor, partial curve, poor fit]"
21,COc1ccc2c(c1)[nH]c1c(N3CCN(Cc4ccc5c(c4)OCO5)CC3)ncnc12,"inconclusive: 39.8 µM [inhibitor, full curve]"
22,Cc1csc2nc(COc3ccccc3NC(=O)c3ccco3)cc(=O)n12,inactive
23,O=c1c(Br)ccc(Br)cc1Br,"inconclusive: 17.8 µM [inhibitor, partial curve, poor fit]"

row,Compound,Potency
1,Cc1ccccc1S(=O)(=O)Cc1ccc(C(=O)NC2CCCCC2)o1,inactive
2,CCOc1ccc(-c2nc(SCC(=O)Nc3ccc(C)c(C)c3)n3[nH]c(=O)cc3n2)cc1,"inconclusive: 56.2 µM [inhibitor, partial curve, poor fit]"
3,Cc1ccc(-n2cccc2/C=C2\C(=N)N3N=C(C(C)C)SC3=NC2=O)cc1,"inconclusive: 50.1 µM [inhibitor, partial curve, poor fit]"
4,Nc1nnnn1CC(=O)N/N=C/c1ccccn1,inactive
5,Cc1ccc(S(=O)(=O)N2CCN(c3nc(-n4cccn4)nc4ccccc34)CC2)cc1,"inconclusive: 20 µM [inhibitor, partial curve, poor fit]"
6,Nc1cccc2nc3ccccc3cc12,inactive
7,C=CCNCCOc1ccc(C(C)(C)c2ccccc2)cc1,inactive
8,Cc1ccc(C)c(CN2C(=O)CSc3ccc(C(=O)NCc4ccc(F)cc4)cc32)c1,inactive
9,CN=C1N[C@H](c2ccccc2)N(c2ccccc2)S1,"inconclusive: 89.1 µM [inhibitor, single point]"
10,O=C1C(Nc2ccc(O)cc2)=C/C(=N/S(=O)(=O)c2cccs2)c2ccccc21,"inconclusive: 31.6 µM [inhibitor, single point]"
11,Cc1nnc(SCc2ccc(Cl)cc2)c2cc3occc3n12,"inconclusive: 35.5 µM [inhibitor, partial curve, poor fit]"
12,Cc1ccc(CNC(=O)c2ccc3c(=O)[nH]c4c(C(=O)NCC5CCCO5)sc(=S)n4c3c2)cc1 (centres undefined),"inconclusive: 89.1 µM [inhibitor, single point]"
13,Cn1c(C(=O)N(Cc2ccccc2)Cc2cccs2)cc2sccc21,"inconclusive: 89.1 µM [inhibitor, partial curve, poor fit]"
14,CCn1c(SCc2nc3sc(C(=O)O)c(C)c3c(=O)[nH]2)nc2ccccc21,active: 12.6 µM
15,COc1cc(N/C(N)=N/c2nc(C)cc(C)n2)cc(OC)c1,"inconclusive: 17.8 µM [inhibitor, full curve, poor fit]"
16,CC(C)N1C(=O)S/C(=C\c2ccc(-c3ccc(Cl)c(C(=O)O)c3)o2)C1=O,"inconclusive: 70.8 µM [inhibitor, single point]"
17,C/C(N)=C(/C#N)C(=O)CSc1nc2ccccc2c(=O)n1Cc1ccc(F)cc1,"inconclusive: 89.1 µM [inhibitor, single point]"
18,C/C(=N\Nc1cc(C)nc(-c2ccccc2O)n1)c1ccccc1,"inconclusive: 89.1 µM [inhibitor, partial curve, poor fit]"
19,COc1cccc(CNC(=O)c2ccc(NS(=O)(=O)c3ccc4[nH]c(=O)[nH]c4c3)cc2)c1,"inconclusive: 79.4 µM [inhibitor, single point]"
20,COC(=O)c1cc(COc2ccc3c4c(c(=O)oc3c2)CCCC4)c(C)o1,inactive
21,CCC(C)NCc1ccc(C(=O)OC)o1 (centres undefined),inactive
22,CCCOC(=O)c1c(NC(=O)C2c3ccccc3Oc3ccccc32)sc2c1CCC(C)C2 (centres undefined),inactive
23,CC(C(=O)Nc1cc(C(F)(F)F)ccc1Cl)n1nnc2sc3c(c2c1=O)CCCC3 (centres undefined),inactive

row,Compound,Potency
1,O=c1c2ccccc2nc2n1CCC2,"inconclusive: 79.4 µM [inhibitor, partial curve, poor fit]"
2,CC(=O)N/C(=C\c1ccccc1)C(=O)OCC(=O)c1c(N)n(C)c(=O)n(C)c1=O,inactive
3,Cc1ccsc1CNc1ncnc2ccc(-c3c(C)noc3C)cc12,"inconclusive: 79.4 µM [inhibitor, partial curve, poor fit]"
4,C=CC[n+]1ccc2ccccc2c1C,inactive
5,CC(C)(C)c1nnc(N/N=C/c2ccc(Br)cc2)n(N)c1=O,inactive
6,CCOC(=O)c1ccc(NC(=O)COCc2cc(-c3ccc4c(c3)OCO4)on2)cc1,inactive
7,COc1ccc(CCNC(=O)COC(=O)c2ccc([N+](=O)[O-])o2)cc1,"inconclusive: 44.7 µM [inhibitor, partial curve]"
8,COc1ccc(-c2nc3ccccc3o2)cc1NC(=O)C(C)Oc1ccc(Cl)cc1Cl (centres undefined),"inconclusive: 25.1 µM [inhibitor, single point]"
9,Cc1cc(N/N=C/c2cccc(Cl)c2)nc(NCc2ccccc2)n1,inactive
10,Cc1[nH]n(-c2ccccc2)c(=O)c1C(c1ccc(O)c([N+](=O)[O-])c1)c1c(C)[nH]n(-c2ccccc2)c1=O,"inconclusive: 79.4 µM [inhibitor, partial curve, poor fit]"
11,COc1ccc(NC(=O)c2c[nH]n3c(=O)cc(C4CCN(C(=O)OC(C)(C)C)CC4)nc23)cc1Cl,"inconclusive: 44.7 µM [inhibitor, partial curve]"
12,O=C(NC1CCCCC1)Oc1ccccc1,inactive
13,CN(C)CCCN1c2ccc([N+](=O)[O-])cc2CCc2cc([N+](=O)[O-])ccc21,"inconclusive: 50.1 µM [inhibitor, partial curve, poor fit]"
14,COc1ccc(OC)c(NC(=O)N(C)CCc2c(C)nn(C)c2C)c1,inactive
15,Cc1ccc2c(c1)-c1cc(C)ccc1C2=O,"inconclusive: 79.4 µM [inhibitor, partial curve, poor fit]"
16,O=C(COC(=O)c1ccc([N+](=O)[O-])o1)Nc1ccc2c(c1)OCO2,"inconclusive: 50.1 µM [inhibitor, partial curve]"
17,O=C(Nc1ccc(Cl)cc1)C(Cl)C(=O)c1ccccc1 (centres undefined),"inconclusive: 79.4 µM [inhibitor, single point]"
18,O=C(Cc1ccccc1)NC(NNc1ccccc1)(C(F)(F)F)C(F)(F)F,inactive
19,Cc1ccc(-c2nc3ncccc3o2)cc1NC(=O)c1ccc(-c2cccc(Cl)c2C)o1,inactive
20,CN1C(=O)C2(c3ccccc31)c1c(oc3ccccc3c1=O)C(=O)N2CCCO (centres undefined),inactive
21,CC1CCCC(C)N1C(=O)Cn1nnc(-c2ccccc2)n1 (centres undefined),"inconclusive: 89.1 µM [inhibitor, single point]"
22,COc1ccc(OC)c(NC(=O)COC(=O)c2cc3c(s2)CCC3)c1,"inconclusive: 63.1 µM [inhibitor, partial curve, poor fit]"
23,NC1=NC(=Nc2cccc(S(N)(=O)=O)c2)c2ccccc21,inactive
